T1: human IL-12 (human, UniProt P29459 23-219; P29460 23-328)
T1 sequence (looked up) 1: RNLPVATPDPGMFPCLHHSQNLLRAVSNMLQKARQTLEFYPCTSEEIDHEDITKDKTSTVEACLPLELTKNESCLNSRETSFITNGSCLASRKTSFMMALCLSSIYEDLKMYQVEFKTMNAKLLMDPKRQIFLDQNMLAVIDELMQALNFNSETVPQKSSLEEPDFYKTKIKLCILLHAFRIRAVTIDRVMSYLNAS
T1 sequence (looked up) 2: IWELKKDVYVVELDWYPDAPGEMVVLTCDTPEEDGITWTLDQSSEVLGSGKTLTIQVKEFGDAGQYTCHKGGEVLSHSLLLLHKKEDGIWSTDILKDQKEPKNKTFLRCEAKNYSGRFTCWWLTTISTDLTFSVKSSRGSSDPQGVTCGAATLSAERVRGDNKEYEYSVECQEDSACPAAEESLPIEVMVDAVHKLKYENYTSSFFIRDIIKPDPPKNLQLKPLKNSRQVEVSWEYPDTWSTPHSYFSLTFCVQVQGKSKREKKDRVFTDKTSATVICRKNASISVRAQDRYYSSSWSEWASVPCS

T2: hB7.1-Fc (human, UniProt P33681 35-242)
T2 construct: Titrated in solution over the coated CTLA4 proteins; also called human B7.1; not shown: Fc part of hB7.1-Fc
T2 sequence (looked up): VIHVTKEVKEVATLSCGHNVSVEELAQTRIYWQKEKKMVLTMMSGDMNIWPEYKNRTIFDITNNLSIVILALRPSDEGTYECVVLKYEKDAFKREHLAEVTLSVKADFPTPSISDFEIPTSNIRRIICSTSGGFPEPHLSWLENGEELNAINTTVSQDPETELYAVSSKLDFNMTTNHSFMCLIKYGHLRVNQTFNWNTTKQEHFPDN


Legend:
[1] = biological target: recombinant human IL-18 (human, UniProt Q14116 37-193); assay: cell-based or functional assay
[2] = biological target: T1, human IL-12; assay: cell-based or functional assay
[3] = biological target: T2, hB7.1-Fc; assay: sandwich ELISA: CTLA4 protein coated at 1 µg/ml, hB7.1-Fc titrated, detected with biotinylated anti-hB7.1
[4] = biological target: T3, Recombinant Human IL-1β (human, UniProt P01584 117-269); assay: SPR (BIAcore); *off-rate at the limit of dissociation after 1 hour
T3 construct: also called IL-1b

[5] = biological target: T3, Recombinant Human IL-1β; assay: SPR (BIAcore)

EC50 [3] [µg/mL]	koff [4] [s⁻¹]	Kd [5] [nM]	kon [5] [M⁻¹ s⁻¹]	Binder	other results
–	–	–	–	IL12/IL18/PGE2 TVD (other) heavy: EVTLRESGPALVKPTQTLTLTCTFSGFSLSKSVMGVSWIRQPPGKALEWLAHIYWDDDKYYNPSLKSRLTISKDTSKNQVVLTMTNMDPVDTATYYCARRGIRSAMDYWGQGTTVTVSSASTKGPEVQLVQSGTEVKKPGESLKISCKGSGYTVTSYWIGWVRQMPGKGLEWMGFIYPGDSETRYSPTFQGQVTISADKSFNTAFLQWSSLKASDTAMYYCARVGSGWYPYTFDIWGQGTMVTVSSASTKGPEVQLVQSGAEVKKPGASVKVSCKASGYTFTKYWLGWVRQAPGQGLEWMGDIYPGYDYTHYNEKFKDRVTLTTDTSTSTAYMELRSLRSDDTAVYYCARSDGSSTYWGQGTLVTVSS[human IgG1 constant region not spelt out] light: DIVMTQSPDSLAVSLGERATINCKASQSVSNDVAWYQQKPGQPPKLLIYYASNRYTGVPDRFSGSGSGTDFTLTISSLQAEDVAVYYCQQDYNSPWTFGGGTKVEIKRTVAAPEIVMTQSPATLSVSPGERATLSCRASESISSNLAWYQQKPGQAPRLFIYTASTRATDIPARFSGSGSGTEFTLTISSLQSEDFAVYYCQQYNNWPSITFGQGTRLEIKRTVAAPDVLMTQTPLSLPVTPGEPASISCTSSQNIVHSNGNTYLEWYLQKPGQSPQLLIYKVSNRFSGVPDRFSGSGSGTDFTLKISRVEAEDVGVYYCFQVSHVPYTFGGGTKVEIKRTVAAPSVFIFPPSDEQLKSGTASVVCLLNNFYPREAKVQWKVDNALQSGNSQESVTEQDSKDSTYSLSSTLTLSKADYEKHKVYACEVTHQGLSSPVTKSFNRGEC	Neutralization of IL-18 IC50 (nM); IFN-γ release from KG-1 cells [1]: 0.579 nM; Neutralization of IL-12 IC50 (nM); IFN-γ release from PHA blast cells [2]: 4.57 nM
0.036	–	–	–	hCTLA4ECD Fc (Fc fusion, also called CTLA4-Fc; parental molecule hCTLA4ECD Fc) not shown	–
0.53	–	–	–	½ hCTLA4ECD Fc (Fc fusion, Half receptor-Fc with Fc-Mut18; 98 % half-Ig by SEC; also called half hCTLA4ECD Fc; half-Ig hCTLA4ECD Fc) not shown	–
–	4e-06	0.027	150000	IL1b DA1 Fc (Fc fusion, Domain antibody-Fc with wild-type Fc; also called IL1beta DA1 Fc) EVQLLESGGGLVQPGGSLRLSCAASGFTFADEGMMWVRQAPGKGLEWVSRITYSGKNTYYADSVKGRFTISRDNSKNTLYLQMNSLRAEDTAVYYCAKYTGRILGHHLFDYWGQGTLVTVSS[human IgG1 Fc not spelt out]	–
–	3.9e-06	0.012	340000	IL1b DA2 Fc (Fc fusion, Domain antibody-Fc with wild-type Fc; also called IL1beta DA2 Fc) EVQLLESGGGLVQPGGSLRLSCAASGFTFAEESWMWVRQAPGKGLEWVSRIGQDGKNTYYREDVKGRFTISRDNSKNTLYLQMNSLRAEDTAVYYCAKYTGRIMGHHLFDYWGQGTLVTVSS[human IgG1 Fc not spelt out]	–
